Results published in PubChem BioAssay AID651791 (National Center for Advancing Translational Sciences (NCATS), 2012).
Inconclusive means that the source gave no clear call. Such entries were picked first, then a sample of the others. No potency is given beside an inconclusive call; the fits are too rough. The source made the active and inactive calls. The call rests on the fitted dose curve; in most records, active means well fitted inhibition curve with a large enough effect; inconclusive means small, poorly fitted or top-dose-only effect; inactive means no such curve, though single readings can be large or run the other way.

experiment: InCell qHTS Assay for Inhibitors of the mTORC1 Signaling Pathway in MEF (Tsc2-/-, p53-/-) Cells: Hit Validation; conditions: phospho-rpS6 immunofluorescence, 24 h; further: nearly all actives have a fitted effect of over 75% in size
Description: The mammalian target of rapamycin (mTOR) is an intracellular serine/threonine kinase Aberrant regulation of mTOR signaling plays a causative role in a number of human diseases, including cancer, benign tumors such as lymphangioleiomyomatosis (LAM) and Tuberous Sclerosis Complex (TSC), and metabolic diseases such as diabetes and obesity. This project aims to identify inhibitors of ribosomal protein S6 (rpS6) phosphorylation. The phosphorylation of rpS6 is a key event downstream of mTOR activation. The assay uses a phospho-specific antibody of phospho-rpS6 to detect inhibitors of mTOR activation. Mutations in the Tsc1 and Tsc2 genes are the underlying genetic lesions responsible for TSC, causing constitutive activation of the mTORC1 pathway and leading to profound effects on cell metabolism. Aberrant metabolism in cancer has recently received significant attention as a target to develop therapeutic agents in the treatment of cancer.1 As Tsc2-/- cells have lost the ability to respond to energy and growth factor deprivation, these cells are unable to properly down regulate cellular biosynthetic processes in response to metabolic stress, and are thus extremely sensitive to glucose deprivation-induced death.2 A central goal of this project is to explore the unique cell survival and metabolic properties of cells with Tsc1 or Tsc2 by screening for compounds that selectively target the Tsc2-/- MEFs by screening both Tsc2-/- and WT MEF cell lines. We hope to better understand these aspects of TSC physiology in order to exploit them for therapeutic benefit. NIH Molecular Libraries Probe Production Centers Network [MLPCN] NIH Chemical Genomics Center [NCGC] MLPCN Grant: NS059428 Assay Submitter (PI): Blenis, John; Harvard University
For quantitative high throughput analysis of mTORC1 signaling, we developed a cell-based assay for immuno-fluorescence based detection of rpS6 phosphorylation on the Acumen Explorer that will be used a platform for the primary small molecule screen. Mouse embryonic fibroblasts (MEFs) are cultured in 1536-well plates using DMEM + 10% FBS. Twenty-four hrs after plating, test compounds (solubilized in DMSO) are delivered and incubated with the cells for 24 hrs at 37 degree Celsius. Following the incubation, media with compound is aspirated and the cells are fixed in 4% paraformaldehyde (PFA) containing PBS + 0.2% TX-100. Next, PFA is aspirated, cells are washed two times with PBS plus 0.2% TX-100 and the cells are blocked for 1 hr at room temperature (blocking buffer: LiCOR Blocking Buffer plus 0.2% TX-100). This is followed by aspiration and staining with Alexa-488 conjugated-phospho-rpS6 Ser235/236 antibody for 2 hours at room temperature (Cell Signaling Technology # 4803, 1:50 dilution in blocking buffer). Cells are washed two times with PBS plus 0.2% TX-100, and stained with 10 uM propidium iodide (PI) for 20-25 minutes for cell number measurement (1:500 dilution of Hoescht staining is also added for IN Cell imaging). The plates are scanned on the Acumen Explorer laser scanning instrument (TTP Labtech) using the 488nm laser for simultaneous excitation of the Alexa-488 and PI. The fluorescence emission from the Alexa-488 conjugated rpS6 phospho-235/236 antibody staining is selected using a […] band pass filter. Fluorescence emission from the PI stain is selected using a 575-640 nm band pass filter. The normalized phospho-S6 staining is calculated as the ratio of the integrated Alexa 488 intensity divided by the integrated PI intensity for the single concentration rapamycin control (7.5 nM) and DMSO columns. […] Inhibition of the pathway is defined based on the normalized phospho-S6 intensity in rapamycin treated cells. […]
Potency means the concentration at half of the fitted maximal effect; tags describe the fitted curve by direction and shape.

Compound	Potency
CC(=O)C1=C(c2ccc(Cl)c(Cl)c2)N(C(C)=O)n2c(C)nnc2S1	active: 7.36 µM
Cn1c(/C(C#N)=C/c2ccccc2Br)nc2ccccc21	inconclusive [inhibitor, partial curve]
COc1ccc(-c2nc(CN3CCC(C(=O)NCCCN4CCN(c5ccccc5F)CC4)CC3)c(C)o2)cc1OC	inconclusive [inhibitor, single point]
COc1cccc(-c2nnc3sc(CN4CCCCC4)cn23)c1	inconclusive [inhibitor, single point]
Cc1ccc2nc(/C(C#N)=C/c3cccc(Br)c3)[nH]c2c1	inconclusive [inhibitor, single point]
Cc1c(C(=O)OCc2ccccc2)[nH]c2c1C(=O)CC(c1ccc(Cl)cc1)C2 (stereo not given)	inconclusive [inhibitor, single point]
CC(C)COc1ccc(C(=O)NCC2(N3CCN(C)CC3)CCCCC2)cc1	inconclusive [inhibitor, single point]
COc1cccc(-c2oc3ccc(C)cc3c(=O)c2O)c1	inconclusive [inhibitor, single point]
COc1ccc(OC)c(NC(=O)c2nc(S(=O)(=O)Cc3ccc(F)cc3)ncc2Cl)c1	active: 2.61 µM
Cn1nnnc1SCCCNCc1cccc(OCc2ccc(Cl)cc2)c1	inconclusive [inhibitor, single point]
COC(=O)c1c(NC(=O)c2ccc(S(=O)(=O)N3CCCCC3)cc2)sc2c1CCN(C)C2	inconclusive [inhibitor, single point]
Cc1cccc(NC(=O)Cn2cc(C(=O)C3CCCCC3)c3ccccc32)c1C	inconclusive [inhibitor, partial curve]
CCN(CCCNC(=O)c1cc2c(=O)n(CC)c3ccccc3c2s1)Cc1ccccc1	inconclusive [inhibitor, single point]
CCc1ccc(S(=O)(=O)c2c(C(=O)c3ccc(C)c(C)c3)cnc3ccccc23)cc1	inconclusive [inhibitor, single point]
Cc1cccc(N2CCN(C(=O)c3cnn(-c4cccc(Cl)c4C)c3C3CCNCC3)CC2)c1C	inconclusive [inhibitor, single point]
Cc1ccc(NC(=O)c2nc(S(=O)(=O)Cc3ccc(F)cc3)ncc2Cl)cc1C	inconclusive [inhibitor, single point]
CCN(c1ccccc1)S(=O)(=O)c1ccc(NC(=O)c2nc(S(C)(=O)=O)ncc2Cl)cc1	active: 3.69 µM
CC(C)CCNC(=O)C(=O)Nc1c2c(nn1-c1ccc(Cl)cc1)CSC2	active: 18.5 µM
c1ccc(N2CCN(c3ncnc4[nH]ncc34)CC2)cc1	inconclusive [inhibitor, single point]
CCN1CCOC(=O)C1CC(=O)Nc1cc(C)cc(C)c1 (stereo not given)	inconclusive [inhibitor, single point]

Compound	Potency
CCOc1ccc(C(=O)/C=C/c2cn(CC(O)CN3CCCCCC3)c3ccccc23)cc1 (stereo not given)	inconclusive [inhibitor, single point]
CCOc1ccc(NC(=O)c2sc3nc4c(cc3c2N)CCCCCC4)cc1	inconclusive [inhibitor, full curve]
Cc1ccccc1OCCn1c(=N)n(C(C)C)c2ccccc21	inconclusive [inhibitor, single point]
CCOC(=O)c1c(NC(=O)c2nc(S(C)(=O)=O)ncc2Cl)sc(C(C)=O)c1C	active: 3.69 µM
Cc1noc(/C=C/N(C)C)c1S(=O)(=O)N1CCCC(C(=O)Nc2ccc(F)cc2F)C1 (stereo not given)	inconclusive [inhibitor, partial curve]
CCCCN(C)CC(O)Cn1cc(/C=C/C(=O)c2ccc(OCC)cc2)c2ccccc21 (stereo not given)	inconclusive [inhibitor, single point]
COc1ccc2nc(NC(=O)c3nc(S(=O)(=O)Cc4ccccc4)ncc3Cl)sc2c1	active: 1.65 µM
NC(=O)c1ccccc1NC(=O)c1ccc(-c2ccc(Br)cc2)o1	inconclusive [inhibitor, single point]
CCCCC(CC)CNC(=O)c1ccc(Cn2c(=O)[nH]c3cc(OC)c(OC)cc3c2=O)cc1 (stereo not given)	inconclusive [inhibitor, single point]
Cc1ccc(C)c(CN2C(=O)C(O)(c3c(C)[nH]c4ccccc34)c3ccccc32)c1 (stereo not given)	inconclusive [inhibitor, single point]
O=C(Nc1ccc2oc(-c3cc(Br)ccc3Cl)nc2c1)c1cc2ccccc2o1	inconclusive [inhibitor, single point]
Cc1cc(C)c(NC(=O)C2CCN(c3nc4ccccc4n4cccc34)CC2)c(C)c1	inconclusive [inhibitor, single point]
CC1CCN(S(=O)(=O)c2ccc(C(=O)Nc3sc4c(c3C(N)=O)CC(C)(C)NC4(C)C)cc2)CC1	active: 14.7 µM
Cc1cc(C)c2c(NC(=O)c3ccccc3Cl)c(C(=O)Nc3ccc(C)c(C)c3)sc2n1	inconclusive [inhibitor, single point]
CCCCn1c(=N)n(CCOc2ccccc2OC)c2ccccc21	active: 7.36 µM
N#Cc1c(C(F)(F)F)cc(-c2cccs2)nc1SCC(=O)Nc1cccc(Br)c1	inconclusive [inhibitor, single point]
CN(C)CCN(Cc1ccco1)C(=O)c1cc2c(s1)-c1ccccc1OC2	inconclusive [inhibitor, single point]
CCCN(CCC)CCCNC(=O)C1CCN(c2nc3ccc(CC)cc3s2)CC1	inconclusive [inhibitor, single point]
CCc1ccc(C(=O)CC2(O)C(=O)N(CCc3ccccc3)c3ccc(Cl)cc32)cc1 (stereo not given)	inconclusive [inhibitor, single point]
O=C(CSc1nc2c([nH]c3ccccc32)c(=O)n1-c1ccc(F)cc1)NC1CCCCC1	inconclusive [inhibitor, single point]
